Test results: PubChem BioAssay AID485344 (National Center for Advancing Translational Sciences (NCATS), 2010)
Among all 340,000 compounds or so, about 6,900 (2%) were called active. Cut-off read from the data, not from the text of the source: active = inhibition above about 30%; inactive = below that, where a call was filed. Only a part is listed here, and it is no random draw. Where no call is shown, the source filed none.

Each compound was assayed against D(2) dopamine receptor (Homo sapiens) (UniProt P14416) (assay: HTS Assay for Allosteric Antagonists of the Human D2 Dopamine Receptor: Primary Screen for Antagonists). Details: HEK293 TREx D2 cells, calcium flux, dopamine EC80; at 10 µM; stronger effect = higher value.
Sequence of UniProt P14416 (P14416 whole entry, looked up): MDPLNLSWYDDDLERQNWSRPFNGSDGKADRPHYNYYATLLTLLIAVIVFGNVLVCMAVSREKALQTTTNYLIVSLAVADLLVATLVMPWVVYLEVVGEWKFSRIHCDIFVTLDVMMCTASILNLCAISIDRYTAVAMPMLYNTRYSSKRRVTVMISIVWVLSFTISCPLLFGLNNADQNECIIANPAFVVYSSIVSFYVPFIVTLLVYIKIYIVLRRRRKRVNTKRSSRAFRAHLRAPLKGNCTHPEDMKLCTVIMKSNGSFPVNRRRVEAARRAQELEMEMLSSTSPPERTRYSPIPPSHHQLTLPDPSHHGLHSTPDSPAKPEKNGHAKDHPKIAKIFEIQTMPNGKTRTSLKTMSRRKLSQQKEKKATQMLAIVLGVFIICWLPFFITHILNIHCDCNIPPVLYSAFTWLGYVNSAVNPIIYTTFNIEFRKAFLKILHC
Method in brief: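 Tetracycline-induced HEK293 TREx cells expressing D2 receptor forced-coupled to calcium signalling, loaded with no-wash calcium dye. Compounds added and calcium flux read 180 s, then dopamine added at EC80 and read a further 180 s.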
Note: 0% is about no effect.

| Structure (SMILES) | inhibition |
| --- | --- |
| CC(C)Cc1cc(CN2CCCC(CO)(Cc3cccc(Cl)c3)C2)[nH]n1 (stereo unspecified) | active: 53.5% |
| COc1cccc(C(=O)N2c3ncnn3C3(CCCCC3)[C@@H]3CCCC[C@@H]32)c1 | 10.1% |
| CCCCc1ccc(NC(=O)c2ccc3c(c2)CCN3S(=O)(=O)CC)cc1 | -12% |
| CCc1ccc(/C=N/NC(=O)c2cc(-c3ccccc3OC)nc3ccccc23)s1 | active: 35.2% |
| Cc1cccc(C)c1C(OCCN(C)C)C1CCCCC1 (stereo unspecified) | active: 89.4% |
| COC(=O)c1ccc(NC(=O)CCCC(=O)OCC(=O)c2ccc(Cl)cc2)cc1 | -9.49% |
| COc1ccc(C)cc1NS(=O)(=O)c1c(C(=O)N2CCC(C)CC2)c(C)n(C)c1C | 14.6% |
| Cc1ccc(NC(=O)c2oc3ccc4c(c3c2C)C(=O)CC(C)(C)O4)c(C)c1 | 2% |
| O=C(COc1ccccc1)NCC(c1ccc(Cl)cc1)N1CCOCC1 (stereo unspecified) | -10.1% |
| Cc1ccc(-c2noc(-c3ccc(N4CCN(C)CC4)c([N+](=O)[O-])c3)n2)cc1 | -2.99% |
| Cc1coc2c1c(C)cc1oc(=O)c(Cc3ccccc3)c(C)c12 | active: 42.8% |
| COc1ccc(CCNC(=O)c2cccc(Nc3nc4ccccc4nc3-n3nc(C)cc3C)c2)cc1OC | -2.84% |
| CCOc1c(Br)cc(C2CC(=O)Nc3cc4c(cc32)OCO4)cc1OC (stereo unspecified) | 10.5% |
| O=C(CSc1n[nH]c(-c2ccc(F)cc2)n1)NCc1ccccc1Cl | 8.26% |
| NC1=NC(c2cccc(Cl)c2)n2c(nc3ccccc32)N1 (stereo unspecified) | 9.15% |
| CCOc1ccc2c(c1)c(=O)c(S(=O)(=O)c1ccc(F)cc1)cn2CC(=O)Nc1ccccc1C | -3.11% |
| CCCS(=O)(=O)Nc1cccc(-c2cn3ccc(C)cc3n2)c1 | -7.84% |
| CCOC(=O)c1cnn(-c2ccc(C(=O)Nc3ccc(C(C)=O)cc3)cc2)c1N | -21.9% |
| CCOC(=O)c1c(S(=O)(=O)N2CCCC(C(=O)NCc3cccc(C)c3)C2)c(C)n(C)c1C (stereo unspecified) | 5.89% |
| COc1cc2cc(CNc3ccccc3)c(=O)n(CC(=O)Nc3ccc(C)c(Cl)c3)c2cc1OC | 13.2% |
| COCCN(Cc1ccco1)C(=O)c1cc2c(=O)[nH]c3ccc(C)cc3c2s1 | -2.19% |
| N#Cc1nc(-c2ccc(COc3ccccc3)o2)oc1N1CCN(c2ccccc2)CC1 | 3.45% |
| CCc1ccc(CNC(=O)c2cnc3sc(N4CCOCC4)nn3c2=O)cc1 | -1.34% |
| Cc1cccc(OC(=O)c2cc(-c3ccc(C)c(C)c3)on2)c1 | -5.67% |

| Structure (SMILES) | inhibition |
| --- | --- |
| COc1ccc(Cl)cc1NC(=O)N1CCN(Cc2cc(=O)n3nc(-c4ccccc4)sc3n2)CC1 | -0.905% |
| O=C1CCSC2(C(=O)N(Cc3ccc(F)cc3)c3ccccc32)N1c1ccc(Cl)cc1 (stereo unspecified) | 10.5% |
| CC(=O)Nc1ccc2nc3c(=O)n(C)c(=O)n(C)c3nc2c1C | -26.1% |
| CCOC(=O)Cn1c(=O)oc2cc(S(=O)(=O)N3CCN(c4cccc(C)c4)C(C)C3)ccc21 (stereo unspecified) | 11.6% |
| COc1ccccc1CNC(=O)C(C)n1c(=O)cc(-c2ccccc2)c2c(C)nn(C)c21 (stereo unspecified) | 9.76% |
| Cn1c(CN2CCN(c3ccccc3NS(C)(=O)=O)CC2)nc2ccccc21 | active: 32.5% |
| CC(C)c1nn2c(=O)cc(COC(=O)c3cccs3)nc2s1 | -17.7% |
| Cc1nc2cccnc2n1-c1cccc(C(=O)NCCN(C)C)c1 | 7.18% |
| Nc1nc(CN2CCN(c3ccccc3)CC2)nc(Nc2ccc(Cl)cc2)n1 | active: 76.5% |
| Cc1cccc(NC(=O)CSc2nc3n[nH]c(C)c3c(=N)n2-c2cccc(Cl)c2)c1 | -2.98% |
| C=CCc1cc(C)ccc1OCC(O)CN1CCN(c2ccccc2)CC1 (stereo unspecified) | active: 79.9% |
| COc1ccc(OC)c(C2CC(=O)Nc3c2c(=O)[nH]c2nc4ccccc4n32)c1 (stereo unspecified) | 12.4% |
| CCOC(=O)C1CCN(CCC(=O)Nc2ccccc2OC)CC1 | 20.2% |
| N#Cc1ccc(NC(=O)COCc2cc(-c3ccco3)on2)cc1 | 22.4% |
| Cn1c(=O)c2c(nc(CN3CCN(c4ccccc4F)CC3)n2Cc2ccc(F)cc2)n(C)c1=O | -3.4% |
| O=c1c(S(=O)(=O)c2ccccc2)cn(Cc2ccccc2)c2cc(N3CCCC3)c(F)cc12 | -1.53% |
| CCOc1ccc(N(Cc2ccccc2)C(=O)c2nc(SC)ncc2Cl)cc1 | 15.3% |
| Cc1nn(C)c2c1c(C(F)(F)F)cc(=O)n2Cc1ccc(Br)cc1F | 7.99% |
| N#Cc1c(N2CCN(C(=O)c3ccco3)CC2)nc(-c2ccccc2)c2c1CCCC2 | active: 31.7% |
| O=C(Cn1c(=O)c(CNc2ccccc2)cc2cc3c(cc21)OCCO3)Nc1ccccc1Cl | -7.64% |
| CCc1ccc2oc(-c3ccc(C)c(NC(=O)Cc4ccccc4)c3)nc2c1 | -4.66% |
| CC(C)(C)OC(=O)N1CCC(c2c(C(=O)NCCN3CCOCC3)cnn2-c2cccc(Cl)c2)CC1 | 11.5% |
| CCCOc1ccc(C(=O)N2CCC(c3nc4ccccc4s3)CC2)cc1 | -7.84% |
| O=C(C1CC1)N1CCc2cc(Br)cc(S(=O)(=O)Nc3ccc(F)c(F)c3)c21 | -10.1% |

| Structure (SMILES) | inhibition |
| --- | --- |
| CCc1ccc(/C=C(/C#N)c2nc(-c3ccc(C)cc3)cs2)cc1 | -9.63% |
| O=S(=O)(NCC(c1ccco1)N1CCN(c2ccccc2)CC1)c1cc(F)ccc1F (stereo unspecified) | -1.96% |
| COCCNCCCCOc1ccccc1-c1ccccc1 | active: 92% |
| Cc1cc(C)cc(N2CCn3c2nc2c3c(=O)n(Cc3c(F)cccc3Cl)c(=O)n2C)c1 | 2.99% |
| O=C(NCCc1ccccc1)C1CCN(c2nc3ccccc3nc2C(F)(F)F)CC1 | 4.84% |
| FC(F)(F)c1cc(Nc2nc3ccccc3c3nncn23)ccc1Cl | 13.7% |
| COCCn1c(SCC(=O)c2ccc(C)cc2)nc2cc(C(=O)NC3CCCC3)ccc2c1=O | -0.202% |
| CCCCCSc1nnc2c(n1)[nH]c1c(C)cccc12 | 7.84% |
| CCCNC(=O)c1cnn(-c2ccc(C)c(C)c2)c1C1CCN(C(=O)OC(C)(C)C)CC1 | -4.84% |
| Cc1c(C(=O)Nc2ccc(F)c(Cl)c2)sc2nc3n(c(=O)c12)CCC3 | -11.2% |
| COc1ccc(Cl)cc1NC(=O)CSc1nc2c(oc3ccccc32)c(=O)n1Cc1ccco1 | -3.54% |
| Fc1ccccc1N1CCN(c2ncnc3onc(-c4ccc(Cl)cc4)c23)CC1 | -5.27% |
| S=C(Nc1ccc(Cl)cc1Cl)NC1CCN(Cc2ccccc2)CC1 | active: 74.7% |
| CCOC(=O)c1ccccc1NC(=O)CN1C(=O)CC(c2ccccc2)Sc2ccccc21 (stereo unspecified) | -6.73% |
| CNS(=O)(=O)c1ccc(N=Cc2c(C)[nH]n(-c3ccc(C)cc3C)c2=O)cc1 | active: 42.3% |
| O=C(c1ccco1)N1CCN(Cc2cccc3ccccc23)CC1 | active: 76% |
| CCCCOc1ccc(C(=O)NCc2cn3cccc(C)c3n2)cc1 | 12.1% |
| Cc1cccc(-c2nc3scc(CCNS(=O)(=O)c4ccc(F)c(C(F)(F)F)c4)n3n2)c1 | 16.3% |
| Cc1ccc(C(=O)Nc2ccc(C(=O)O)cc2)cc1S(=O)(=O)N1CCC(C)CC1 | -18.8% |
| O=C(Nc1ccc(N2CCN(c3ccc(F)cc3)CC2)c(C(=O)O)c1)c1cccs1 | -18% |
| CCOc1cc2c(cc1OCC)C(CC(=O)O)N(C(=O)Nc1ccc(Br)c(C)c1)CC2 (stereo unspecified) | 3.32% |
| CCCCOc1ccc(C(=O)NCCc2sc3nc(-c4ccc(OC)cc4)nn3c2C)cc1 | 17.3% |
| O=C(NCc1ccc(Cl)cc1)C1CCC(CNS(=O)(=O)c2ccccc2)CC1 (stereo unspecified) | -8.11% |
| CCN(CC)c1nn2c(=O)c(C(=O)NCCc3ccccc3C)cnc2s1 | 3.66% |

| Structure (SMILES) | inhibition |
| --- | --- |
| CCOc1ccc(N(C)C(=O)C2CCN(S(=O)(=O)c3c(C)noc3/C=C/c3ccc(C)cc3)CC2)cc1 | -18.4% |
| Cc1ccc(NC(=O)/C=C/c2ccco2)cc1F | -18.1% |
| CCOC(=O)c1c(NC(=O)C[n+]2ccccc2)sc2c1CCCC2 | active: 45.8% |
| Cc1cccc(CN2CCN(CC(=O)NCCc3ccc(Cl)cc3)C2=O)c1 | -1.21% |
| O=C(c1cccc(S(=O)(=O)N2CCOCC2)c1)N1CCN(S(=O)(=O)c2cccs2)CC1 | active: 41.6% |
| CCCOc1ccccc1C(=O)N(Cc1cccc(Br)c1)C1CCS(=O)(=O)C1 (stereo unspecified) | active: 47.5% |
| Cc1cc(C)c(NC(=O)c2oc3c(c2C)-c2[nH]ncc2CC3)c(C)c1 | 12.5% |
| O=C(Cn1cc(S(=O)(=O)Cc2ccccc2Cl)c2ccccc21)NCCc1ccccc1 | 1.33% |
| COc1ccc(NC(=O)c2c(NC(=O)COc3ccccc3)sc3c2CCCCC3)cc1 | -8.21% |
| Cc1nc2c3ccccc3n(CCN3CCCCC3)c2s1 | active: 39.6% |
| O=C(NCc1ccc(F)cc1)C(=O)Nc1ccc2nc3n(c(=O)c2c1)CCCCC3 | -7.58% |
| CCn1nnc2cc(C(=O)Nc3cc(C)ccc3C)ccc21 | -0.525% |
| Cc1ccc(-c2cc3ncc4c(n3n2)-c2cc(Cl)ccc2OC4)cc1 | -1.37% |
| COc1ccc(NC(=O)CCNS(=O)(=O)c2ccc3c(c2)CCCC(=O)N3)cc1 | -15.1% |
| COc1ccc(NC(=O)CC2C(=O)N(c3cccc(OC)c3)C(=O)N2CCC2=CCCCC2)cc1 (stereo unspecified) | 2.61% |
| CCc1cc2c(cc3c(=O)n(CC(=O)N4CCN(c5cccc(C)c5C)CC4)nc(CC)n32)s1 | 0.34% |
| CCc1ccccc1NC(=O)CCC(=O)N1CC(C)Oc2ccc(C)cc21 (stereo unspecified) | 23.1% |
| COc1ccc(CCNCc2c(C(=O)O)c(C)n(Cc3cccc(Cl)c3)c2C)c(OC)c1OC | 13.3% |
| O=C(Cn1cc(C(=O)c2ccccc2)c(=O)c2cc3c(cc21)OCCO3)Nc1ccc(F)c(F)c1 | -0.715% |
| COc1ccc(CCNC(=O)c2cc3c(=O)n(C)c4ccccc4c3s2)cc1OC | -13.7% |
| O=C(c1ccco1)N1CCN(Cc2ccc(F)cc2Cl)CC1 | active: 58% |
| CCCn1c(=O)c2sccc2n2c(CCCC(=O)N3CCN(c4cccc(Cl)c4)CC3)nnc12 | -2.21% |
| CC(=O)c1cccc(NC(=O)CN2C(=O)CC(c3ccc(C)cc3C)=Nc3ccccc32)c1 | 8.15% |
| O=C(/C=C/c1ccc(Cl)cc1)N1CCC(c2nc3ccccc3o2)CC1 | -10.7% |
